From publication PMC6919601, “Identification of Plasmodium dipeptidyl aminopeptidase allosteric inhibitors by high throughput screening” (PLoS ONE, 2019)
The campaign covered roughly 110,000 compounds. About 230 (0.21%) showed an effect of 50% or more. The list shows a part of the results.

What follows are molecules tested against DPAP1 (Plasmodium falciparum, UniProt Q8IIJ9) (assay: primary screen, percent inhibition; read by cleavage of a fluorogenic dipeptide substrate; higher = more effect of the substance).
Parameters: species or system P. falciparum D10 trophozoite lysates; single well
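Also: 30 min substrate incubation versus DMSO and 10 µM JCP410 controls.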

Chain of DPAP1 (Q8IIJ9 whole entry, looked up): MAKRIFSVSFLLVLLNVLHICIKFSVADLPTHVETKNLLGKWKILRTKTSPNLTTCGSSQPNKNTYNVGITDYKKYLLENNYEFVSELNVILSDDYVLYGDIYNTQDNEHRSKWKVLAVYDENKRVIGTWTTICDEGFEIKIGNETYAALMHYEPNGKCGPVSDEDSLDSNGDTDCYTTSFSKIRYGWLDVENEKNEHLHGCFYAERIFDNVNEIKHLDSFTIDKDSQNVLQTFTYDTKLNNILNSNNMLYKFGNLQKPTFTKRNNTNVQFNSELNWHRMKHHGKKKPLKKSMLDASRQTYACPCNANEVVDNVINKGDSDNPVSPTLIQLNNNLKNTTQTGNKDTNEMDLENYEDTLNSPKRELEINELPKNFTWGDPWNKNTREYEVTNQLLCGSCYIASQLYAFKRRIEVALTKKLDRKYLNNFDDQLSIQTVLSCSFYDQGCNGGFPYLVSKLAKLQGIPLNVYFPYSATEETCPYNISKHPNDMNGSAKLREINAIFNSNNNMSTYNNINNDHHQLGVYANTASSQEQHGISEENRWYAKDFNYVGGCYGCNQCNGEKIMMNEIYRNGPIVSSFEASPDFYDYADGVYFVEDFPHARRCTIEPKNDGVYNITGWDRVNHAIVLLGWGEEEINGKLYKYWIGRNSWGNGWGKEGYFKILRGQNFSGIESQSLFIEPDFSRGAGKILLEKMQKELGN

Going from `CCOC(=O)c1c(NC(=O)C2CC=CCC2C(=O)O)sc(C)c1-c1cc(C)ccc1C` (centres unmarked) to `NC(=O)c1c(-c2ccc(Cl)cc2)csc1NC(=O)C1CC=CCC1C(=O)O` (centres unmarked), the “% Inhibition @ 10 uM” value falls from 2.32% to -3.58%.

First: CN1C(=O)C(=Cc2ccc(-c3ccc(C(=O)O)c(O)c3)o2)C(=O)N(C)C1=O
Second: CN1C(=O)c2ccc(C(=O)Nc3cccc(C(=O)O)c3)cc2C1=O
The “% Inhibition @ 10 uM” value of the first is higher: 24.2% for the first, -5.3% for the second.

First: O=C(Cc1cccc2ccccc12)Nc1nc2ccc(Br)cc2s1
Second: CCOc1ccc2nc(NC(=O)c3cnn(-c4ccccc4)c3-n3cccc3)sc2c1
The “% Inhibition @ 10 uM” value of the first is lower: -6.91% for the first, 0.137% for the second.

Compared with `O=C(Cn1ncc2c3ccccc3nc-2c1O)N(CCCN1CCOCC1)Cc1ccco1`, `CCOc1cc(C2C(C(=O)c3cc4ccccc4o3)=C(O)C(=O)N2CCN2CCOCC2)ccc1O` (centres unmarked) is higher in “% Inhibition @ 10 uM” value: -4.27% for the first, -0.28% for the second.

Compared with `CCN1CCN(C(=O)C(C)n2nc(C)c3sc4ccccc4c3c2=O)CC1` (centres unmarked), `CC(C(=O)N1CCN(C2CCCCC2)CC1)n1sc2ccccc2c1=O` (centres unmarked) is lower in “% Inhibition @ 10 uM” value: -3.1% for the first, -8.05% for the second.

First: CC(C)(C)c1ccc(OCC(=O)Nc2ccncc2)c(Br)c1
Second: Cc1cccc(NC(=O)CCCOc2ccc(Cl)cc2Cl)n1
The “% Inhibition @ 10 uM” value of the first is higher: 0.214% for the first, -1.03% for the second.

Compared with `Fc1cccc(Cl)c1CN1CCN(c2ccc(Cl)cc2)CC1`, `O=C(c1ccco1)N1CCN(c2ccc(F)cc2)CC1` is higher in “% Inhibition @ 10 uM” value: -5.11% for the first, 3% for the second.

Going from `CCC(C)N(CCNC(=O)CS(=O)(=O)Cc1nc(-c2ccc(C)cc2)oc1C)C1CCCCC1` (centres unmarked) to `Cc1ccc(-c2nc(CS(=O)(=O)CC(=O)NCCCSC3CCCCC3)c(C)o2)cc1`, the “% Inhibition @ 10 uM” value rises from -1.89% to -0.138%.

Compared with `COc1cccc(CNCc2ccccc2Br)c1OC`, `COc1ccc(CN2CCN(Cc3ccccc3C(F)(F)F)CC2)c(OC)c1OC` is lower in “% Inhibition @ 10 uM” value: 1.92% for the first, 1.78% for the second.

First: Cc1ccc(N2CCCn3c2cc(C)c(C#N)c3=O)cc1Cl
Second: Cc1ccc(N2CCN(CC(=O)Nc3ccc(Br)cc3)CC2)cc1C
The “% Inhibition @ 10 uM” value of the first is higher: -1.38% for the first, -8.01% for the second.

Going from `Cc1ccc(CNC(=O)c2cccc3c2SCCC3=O)cc1` to `CCCCOc1ccc(C(=O)NCc2ccc(OC)cc2)cc1`, the “% Inhibition @ 10 uM” value rises from -4.42% to -2.05%.

First: O=C(Cc1ccc(Cl)cc1)Nc1ccc2c(c1)C(=O)N(CC1CCCO1)C2=O (centres unmarked)
Second: Cc1cccc(NC(=O)c2nc(-c3ccc(Cl)cc3)n3c2CCCCC3)n1
The “% Inhibition @ 10 uM” value of the first is lower: 3.86% for the first, 6.14% for the second.

Going from `O=C1CC(c2ccccc2Br)c2cc3c(cc2N1)OCO3` (centres unmarked) to `O=c1c(O)c(-c2ccc3c(c2)OCO3)oc2ccccc12`, the “% Inhibition @ 10 uM” value rises from -5.23% to -5%.

First: CC(CC1OCC(CN2CCCCC2)O1)CC(C)(C)C (centres unmarked)
Second: Cc1ccc2c(c1)c1c(n2CC(O)CN2CCOCC2)CCCC1 (centres unmarked)
The “% Inhibition @ 10 uM” value of the first is higher: 6.24% for the first, -0.994% for the second.

Going from `COc1ccc(C2=NOC(C(=O)NC(C)c3ccccc3)C2)cc1` (centres unmarked) to `CCN1CCN(C(=O)C2CC(c3ccc(OC)cc3)=NO2)CC1` (centres unmarked), the “% Inhibition @ 10 uM” value rises from -5.25% to 1.62%.

First: CCOc1ccc(CCNC(=O)C2CCN(S(=O)(=O)c3c(C)nn(C)c3C)CC2)cc1OCC
Second: CCOc1ccc(NC(=O)CN(c2ccc(C)c(Cl)c2)S(C)(=O)=O)cc1
The “% Inhibition @ 10 uM” value of the first is higher: 4.01% for the first, -0.185% for the second.

Going from `COc1ccc(-c2csc(-c3nc(-c4ccc(OC)c(OC)c4)cs3)n2)cc1OC` to `COc1ccc(-c2cc(C(=O)NCC(C)C)no2)cc1OC`, the “% Inhibition @ 10 uM” value falls from 2.79% to -0.591%.

First: COc1ccccc1C(=O)N1CCN(Cc2cccc(Cl)c2)CC1
Second: O=C(NCc1ccccc1)c1ccccc1C(=O)N1CCCCC1
The “% Inhibition @ 10 uM” value of the first is lower: 7.71% for the first, 11.3% for the second.

Going from `CC1=NN(c2nc(C)cc(C)n2)C(=O)C1Cc1ccccc1` (centres unmarked) to `Cc1cc(/C=C2/C(=N)N3C=CSC3=NC2=O)c(C)n1Cc1ccccc1`, the “% Inhibition @ 10 uM” value rises from -11.3% to 3.87%.

Going from `COc1ccc(C)cc1NC(=O)CC(C)C` to `COc1ccc(C)cc1N(CC(=O)Nc1cc(C)cc(C)c1)S(C)(=O)=O`, the “% Inhibition @ 10 uM” value falls from -1.98% to -4.13%.

Going from `CCOCCCNCc1c(C(=O)O)n(Cc2cc(C)ccc2C)c2ccccc12` to `CCCCn1c(CNC(=O)c2cccc(C)c2)nc2ccccc21`, the “% Inhibition @ 10 uM” value falls from 0.277% to -2.49%.

First: Cc1nc2cccnc2n1-c1ccc(CC(=O)NC2CCCCCC2)cc1
Second: O=C(CCN1N=C(c2ccccc2)CCC1=O)NC1CCCCC1
The “% Inhibition @ 10 uM” value of the first is lower: -1.83% for the first, 3.24% for the second.

Compared with `O=C(Nc1ccc2oc(-c3ccccc3F)nc2c1)c1nc[nH]n1`, `CC1=C(C(=O)Nc2ccc(F)cc2)C(c2cccc(Cl)c2)NC(S)=N1` (centres unmarked) is lower in “% Inhibition @ 10 uM” value: 3.72% for the first, -3.63% for the second.

Going from `O=C(NCC1CCCO1)C1CCC(CNS(=O)(=O)c2cccc3cccnc23)CC1` (centres unmarked) to `Cc1ccc(S(=O)(=O)c2nc(-c3ccco3)oc2N2CCC(C)CC2)cc1`, the “% Inhibition @ 10 uM” value rises from -2.42% to 3.36%.

Going from `CCCCn1/c(=N\C(=O)c2ccc3c(c2)OCO3)c(C(=O)OCC)cc2c(=O)n3ccccc3nc21` to `Cc1ccccc1S(=O)(=O)Cc1ccc(C(=O)NC(C)c2ccc3c(c2)OCCO3)o1` (centres unmarked), the “% Inhibition @ 10 uM” value falls from 1.26% to -3.09%.

Going from `N#CC1=C(N)Oc2cc(O)ccc2C1c1cccc2ccccc12` (centres unmarked) to `O=C1c2ccc(Br)cc2C(=O)N1C1c2ccccc2Oc2ccccc21`, the “% Inhibition @ 10 uM” value rises from -2.8% to 18.3%.

Compared with `Cc1sc2nc(-c3cccnc3)nc(O)c2c1C`, `c1ccc(Cn2ncc3c2ncn2nc(-c4ccncc4)nc32)cc1` is higher in “% Inhibition @ 10 uM” value: -5.92% for the first, 2.17% for the second.

Compared with `Cc1cccc(NC(=O)C(O)C(O)C(=O)Nc2cccc(C)c2)c1` (centres unmarked), `Cc1ccc(OCC(=O)Nc2cccc(NC(=O)COc3ccc(C)cc3)n2)cc1` is lower in “% Inhibition @ 10 uM” value: 7.35% for the first, -4.63% for the second.

Going from `CCCN1C(=O)c2[nH]nc(-c3ccc(F)cc3)c2C1c1ccc(O)c(OC)c1` (centres unmarked) to `CC(=O)C1=C(O)C(=O)N(CCc2c[nH]c3ccccc23)C1c1cccc(O)c1` (centres unmarked), the “% Inhibition @ 10 uM” value rises from -1.07% to 0.907%.

Compared with `CC1CN(C(C)Cc2ccc(F)cc2)CC(C)O1` (centres unmarked), `Cc1cc(/C=N\OCc2ccccc2)c(C)n1-c1ccc(F)cc1` is higher in “% Inhibition @ 10 uM” value: -3.5% for the first, 1.13% for the second.

Compared with `COCCNC(=O)c1oc2ccc3c(c2c1C)C(O)CC(C)(C)O3` (centres unmarked), `COC(=O)C1=C(C)NC(=O)CC1c1ccc2ccccc2c1` (centres unmarked) is lower in “% Inhibition @ 10 uM” value: 3.14% for the first, -1.54% for the second.

First: CC[C@H](C)[C@@H](CS(=O)(=O)N[C@@H](CCc1ccccc1)C(=O)c1nc2ccccc2o1)NC(=O)OCc1ccccc1
Second: CCC(C)C(C(=O)Nc1nc(-c2ccc(Br)cc2)cs1)N1C(=O)c2ccccc2C1=O (centres unmarked)
The “% Inhibition @ 10 uM” value of the first is lower: -2.03% for the first, 2.38% for the second.

Going from `c1cc2c(cc1CCNC1C3CC4CC(C3)CC1C4)OCO2` (centres unmarked) to `O=S(=O)(/C=C/c1ccccc1)NCc1ccc2c(c1)OCO2`, the “% Inhibition @ 10 uM” value rises from 1.28% to 7.2%.

First: Cc1cc(C)c2c(=O)n(CC(=O)NC3CCCC(C)C3C)sc2n1 (centres unmarked)
Second: CC1CC(C)CN(C(=O)c2nn(C)c3c2CS(=O)(=O)c2ccccc2-3)C1 (centres unmarked)
The “% Inhibition @ 10 uM” value of the first is higher: 12% for the first, 0.0845% for the second.

First: CC1(C)CC2=Nc3nc(SCCN4CCOCC4)nc(O)c3C(c3ccc(F)cc3)C2=C(O)C1 (centres unmarked)
Second: Cc1c(C(=O)NCCN2CCOCC2)sc2nc(-c3ccc(F)cc3)cn12
The “% Inhibition @ 10 uM” value of the first is lower: -6.29% for the first, -3.7% for the second.

First: Cc1[nH]nc(NCc2ccccc2)c1[N+](=O)[O-]
Second: O=c1cccc2n1C[C@H]1C[C@@H]2CN(Cc2ccccc2[N+](=O)[O-])C1
The “% Inhibition @ 10 uM” value of the first is lower: 0.716% for the first, 3.15% for the second.

Compared with `O=C1CCCC2=C1C(c1ccc(Cl)cc1)N1C(=O)CCSC1=N2` (centres unmarked), `O=C1CC(c2ccccc2C(F)(F)F)C2=C(CC(c3cccs3)CC2=O)N1` (centres unmarked) is higher in “% Inhibition @ 10 uM” value: -6.07% for the first, 3.67% for the second.

Going from `O=C(O)c1cc(C(=O)O)cc(C23CC4CC(CC(C4)C2)C3)c1` to `Cc1nn(C)c(C)c1CN(C)C(=O)CC12CC3CC(CC(C3)C1)C2`, the “% Inhibition @ 10 uM” value falls from 2.44% to 1.92%.

Going from `CCCC(=O)O/N=C(\c1ccccc1)c1ccncc1` to `Cc1ccccc1NC(=O)CN1CC(c2ccccc2)CC1=O` (centres unmarked), the “% Inhibition @ 10 uM” value rises from -4.74% to -1.12%.

First: COc1ccc(C2C(C#N)=C(N)N(c3cccnc3)C3=C2C(=O)CC(C)(C)C3)cc1CN1CCOCC1 (centres unmarked)
Second: COc1cccc(C2C(C#N)=C(N)N(c3c(F)cccc3F)C3=C2C(=O)CC(C)(C)C3)c1 (centres unmarked)
The “% Inhibition @ 10 uM” value of the first is higher: -4.65% for the first, -4.76% for the second.

Going from `CC1(C)CC(O)=C/C(=N/CCc2c[nH]cn2)C1` to `CC1(C)CC(c2csc(-c3ccccc3)n2)CCO1` (centres unmarked), the “% Inhibition @ 10 uM” value falls from -1.69% to -2.07%.

Compared with `Cc1occc1C(=O)Nc1ccc(F)cc1F`, `Cc1ccc(-c2cc(C(F)(F)F)n3ncc(C(=O)O)c3n2)cc1` is higher in “% Inhibition @ 10 uM” value: -0.436% for the first, 2.13% for the second.

First: Clc1cccc(N2CCN(CC3CCCCC3)CC2)c1
Second: CS(=O)(=O)N(Cc1ccc(Cl)cc1)c1ccc(C(=O)N2CCN(c3ccccc3)CC2)cc1
The “% Inhibition @ 10 uM” value of the first is higher: 2.99% for the first, 2.79% for the second.

Compared with `COc1ccc2c(c1)N=C1C(CC(=O)N1CCN(C)C)S2` (centres unmarked), `CCOc1ccc2c(c1)nc(SCC(=O)c1cccs1)n2C` is lower in “% Inhibition @ 10 uM” value: 4.11% for the first, -0.865% for the second.

Going from `CCN(CC)CCCCOc1cc(C)cc(C)c1` to `Cc1ccc2[nH]c(CCN(C)C)c(CN3CCOCC3)c2c1`, the “% Inhibition @ 10 uM” value falls from 0.565% to -5.31%.

Compared with `Cc1ccc(Cn2nc(C)c(NC(=O)c3cc(CC(C)C)on3)c2C)cc1`, `CCn1c(-c2nonc2NC(=O)c2ccccc2Cl)nc2ccccc21` is lower in “% Inhibition @ 10 uM” value: -1.84% for the first, -15.2% for the second.

First: COc1cc2ncc(S(=O)(=O)c3ccccc3)c(N3CCCC(C)C3)c2cc1OC (centres unmarked)
Second: COc1ccc(C=O)cc1CSc1nc2ccccc2s1
The “% Inhibition @ 10 uM” value of the first is lower: -3.67% for the first, 21.6% for the second.

Compared with `Nc1ccc(-c2nc3cc(N)ccc3s2)cc1`, `Cc1ccc(OCC(=O)Nc2ccc(Nc3ccccc3)cc2)cc1` is higher in “% Inhibition @ 10 uM” value: -4.44% for the first, -2.67% for the second.

Going from `CCCCN(C1CCN(C)CC1)S(=O)(=O)c1ccc(-c2cc(C(F)(F)F)no2)s1` to `Cc1ccc(NS(=O)(=O)c2ccc(NC(=O)c3ccc(N(C)S(C)(=O)=O)cc3)cc2)cc1`, the “% Inhibition @ 10 uM” value rises from -2.86% to 0.709%.
